Test results from PubChem BioAssay AID1346428 (National Center for Advancing Translational Sciences (NCATS), 2018).
In all, about 48,000 compounds went through this assay and about 1,200 (2.5%) were called active. Not shown: some 2% with an inconclusive outcome.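 Rule for the calls: active = activation of at least 60% and not above a set upper limit (about 1 call in 100 departs from these limits); inconclusive = activation of 40% to 60%, or above that upper limit; inactive = activation under 40%.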 Some of the results follow.

These molecules were tested against Probable G-protein coupled receptor 32 (Homo sapiens) (UniProt O75388) (assay: qHTS for Agonists of Human Resolvin D1 Receptor DRV1). Conditions: CHO-K1 GPR32 beta-arrestin PathHunter luminescence, 90 min; at 76.9 µM; active compounds read high; zero percent set by DMSO-only wells.
In short: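 Luminescent readout of beta-Gal complementation quantifies ligand-induced beta-arrestin association with GPR32 in CHO-K1 cells; 90 min compound incubation at 37 °C, detection 1 h at room temperature.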
Note: 0% is about no effect.

Sequence of UniProt O75388 (O75388 whole entry, looked up): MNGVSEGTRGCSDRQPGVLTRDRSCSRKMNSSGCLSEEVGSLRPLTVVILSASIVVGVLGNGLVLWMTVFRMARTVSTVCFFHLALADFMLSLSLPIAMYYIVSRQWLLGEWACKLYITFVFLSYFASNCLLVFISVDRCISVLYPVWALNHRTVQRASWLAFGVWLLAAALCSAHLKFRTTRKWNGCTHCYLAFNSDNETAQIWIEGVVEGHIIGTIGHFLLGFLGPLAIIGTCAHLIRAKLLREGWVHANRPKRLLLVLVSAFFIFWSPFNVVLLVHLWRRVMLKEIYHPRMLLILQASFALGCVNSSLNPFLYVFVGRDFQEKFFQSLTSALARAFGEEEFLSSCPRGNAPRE

Structure (SMILES) | activation
CCOc1ccc(CNC(=O)C2CCN(c3nnc(-n4c(C)ccc4C)s3)CC2)cc1 | inactive: -15.7%
Cc1ccc(NC(=O)c2oc3ccccc3c2NC(=O)Cc2ccccc2)cc1 | inactive: -0.428%
COc1ccccc1NC(=O)CSC1=Nc2ccccc2C2=NC(Cc3ccccc3)C(=O)N12 (stereo unspecified) | inactive: -24.6%
COc1ccc2c(c1)CCc1sc(NC(=O)c3cccc(Br)c3)nc1-2 | inactive: -20.2%
CCOc1ccc(S(=O)(=O)N2CCN(c3cccc(C(F)(F)F)c3)CC2)cc1OCC | inactive: -19.1%
CCOC(=O)N1CCc2c(sc3c2c(=O)n(Cc2ccccc2)c(=O)n3Cc2cccc(C)c2)C1 | inactive: -11.7%
CCc1nc2c(cnn2-c2ccc(C)cc2)c(=O)n1Cc1ccccc1 | inactive: -0.939%
Cc1cc(C)c(S(=O)(=O)NCC(c2ccco2)N2CCOCC2)c(C)c1 (stereo unspecified) | inactive: -0.0887%
CCc1ccc(NC(=O)Cn2c(=O)n(CCCCC(=O)NCc3ccccc3Cl)c(=O)c3ccccc32)cc1 | inactive: -2%
Cc1ccc(-c2onc(C)c2C)cc1S(=O)(=O)NCc1ccc(N(C)C)cc1 | inactive: 7.76%
O=C(NCc1ccccc1)C(=O)NCC(c1ccco1)S(=O)(=O)c1ccc(Cl)cc1 (stereo unspecified) | inactive: -8.59%
COc1ccccc1-c1nnc(C2CCN(C(=O)c3cccc(C)c3)CC2)o1 | inactive: 2.98%
COc1cccc(Cn2c(=O)n(-c3cccc(Cl)c3)c(=O)c3c4c(sc32)CN(C(C)=O)CC4)c1 | inactive: -12.8%
C=CCC(CC=C)(CNC(=O)C(=O)Nc1ccc(C)cc1)c1ccccc1 | inactive: -11.3%
CCOc1cc(OCC)cc(C(=O)Nc2cccc(-c3nc4ccccc4[nH]3)c2)c1 | inactive: -18.3%
CCOc1ccc(NC(=O)CN2CCN(S(=O)(=O)c3ccc(OC)cc3)CC2)cc1 | inactive: 11.4%
COc1ccc(NC(=O)c2cc(C)nc3c2c(C)nn3-c2ccc(C)cc2)cc1OC | inactive: -12.5%
Cc1ccccc1Nc1nn2c(=O)c3ccc(C(=O)NCc4ccccc4)cc3nc2s1 | inactive: -12.7%
CCn1c(=O)cc(OCC(=O)NCc2ccccc2OC)c2ccccc21 | active: 118%
COc1ccc(C(=O)/C=C/c2cn(CC(O)CN3CCc4ccccc43)c3ccccc23)cc1 (stereo unspecified) | inactive: -8.7%
COc1cc(Nc2nc(SCc3ccccc3Cl)nc3ccccc23)cc(OC)c1 | inactive: -22.1%

Structure (SMILES) | activation
CCc1ccccc1NC(=O)CCCN1C(=O)CCn2nc(-c3cn(C)c4ccccc34)cc21 | inactive: 12.5%
COc1cccc(NC(=O)c2oc3ccccc3c2NC(=O)C2CCCCC2)c1 | inactive: -5.57%
CCOCc1cc(CN2CCN(c3ccccc3OC)CC2)c(O)c2ncccc12 | inactive: -22.7%
COC(=O)c1cc(NC(=O)c2cc3sccc3n2Cc2ccc(Cl)cc2)cc(C(=O)OC)c1 | inactive: 1.22%
CCOc1ccc(NC(=O)CSc2oc(-c3ccccc3)nc2S(=O)(=O)c2ccc(Cl)cc2)cc1 | inactive: -15.9%
Cc1cc(N2CCC(C(=O)N(CC(C)C)CC(C)C)CC2)n2nc(C)c(-c3ccc(Cl)cc3)c2n1 | inactive: -18.5%
O=C1NC(NS(=O)(=O)c2ccccc2)(C(F)(F)F)C(=O)N1c1ccc(F)cc1 (stereo unspecified) | inactive: 25.9%
Cc1cc(C)cc(OCc2cc(=O)n3c(-c4ccccc4)csc3n2)c1 | inactive: -11.7%
CSc1ncc(Cl)c(C(=O)N(Cc2ccc(C)cc2)C2CCS(=O)(=O)C2)n1 (stereo unspecified) | inactive: -6.32%
COc1ccccc1C1C=C(c2ccc(C(C)C)cc2)Nc2nnnn21 (stereo unspecified) | inactive: 0.651%
Cc1cccc(CNC(=O)c2ccc3c(c2)c(C)c(C)n3Cc2ccccc2)c1 | inactive: -21.7%
COc1ccccc1NC(=O)Cn1c(=O)c(CNc2ccccc2)cc2cc(OC)c(OC)cc21 | inactive: -46.8%
O=C(c1cnn(-c2ccc(F)cc2)c1-n1cccc1)N1CCN(c2ccc(Cl)cc2)CC1 | inactive: 9.06%
O=C1CCc2cc(S(=O)(=O)NCc3ccccc3Cl)cc3c2N1CC3 | inactive: 15.9%
CCN(CC)S(=O)(=O)c1ccc(C(=O)Nc2nc3ccc(Cl)cc3s2)cc1 | inactive: -2.97%
O=S(=O)(c1ccccc1)c1nnn2c1nc(NCc1ccc(Cl)cc1)c1sccc12 | inactive: 0.621%
COc1cc(OC)cc(-c2nc3nc(C)c(CCC(=O)Nc4ccc(C)cc4C)c(C)n3n2)c1 | inactive: -0.0662%
O=C(CCn1ccc2cc(S(=O)(=O)N3CCCC3)ccc21)NCc1ccccc1F | inactive: -7.74%
CCOC(=O)N1CCN(Cc2nc3cc(NC(=O)c4cccc(C)c4)ccc3n2C(C)C)CC1 | inactive: 4.32%
COc1cccc(NC(=O)Cn2cc(S(=O)(=O)Cc3ccccc3F)c3ccccc32)c1 | inactive: 22.5%
